# In all, about 360,000 compounds went through this assay and about 25,000 (6.9%) were called active. The shares of active, inactive and inconclusive entries below differ from those in the screen. Calls come from the whole dose curve; as a rule, active = well fitted inhibition curve with a large enough effect; inconclusive = small, poorly fitted or top-dose-only effect; inactive = flat fitted curve, though single readings scatter. Potencies beside an inconclusive call are fits to weak or partial responses and may not hold up.
# Target: Luciferin 4-monooxygenase (Photinus pyralis) (UniProt P08659)
# Assay: qHTS profiling assay for firefly luciferase inhibitor/activator using purifed enzyme and Km concentrations of substrates (counterscreen for miR-21 project); note: nearly all actives have a fitted effect of over 55% in size
# Settings: purified FLuc, luminescence inhibition; series mostly up to 57.5 µM
# Method in brief: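 Purified P. pyralis luciferase (10nM final) with 10uM D-luciferin and 10uM ATP (Km levels) in 50mM Tris acetate pH 7.5, 10mM Mg acetate, 0.01% Tween-20, 0.05% BSA; qHTS 6-point titration, ~60 µM downward; luminescence read.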
# Potency is the fitted concentration of half-maximal effect; tags give direction and shape of the fitted curve.
# UniProt P08659, sequence (P08659 whole entry, looked up): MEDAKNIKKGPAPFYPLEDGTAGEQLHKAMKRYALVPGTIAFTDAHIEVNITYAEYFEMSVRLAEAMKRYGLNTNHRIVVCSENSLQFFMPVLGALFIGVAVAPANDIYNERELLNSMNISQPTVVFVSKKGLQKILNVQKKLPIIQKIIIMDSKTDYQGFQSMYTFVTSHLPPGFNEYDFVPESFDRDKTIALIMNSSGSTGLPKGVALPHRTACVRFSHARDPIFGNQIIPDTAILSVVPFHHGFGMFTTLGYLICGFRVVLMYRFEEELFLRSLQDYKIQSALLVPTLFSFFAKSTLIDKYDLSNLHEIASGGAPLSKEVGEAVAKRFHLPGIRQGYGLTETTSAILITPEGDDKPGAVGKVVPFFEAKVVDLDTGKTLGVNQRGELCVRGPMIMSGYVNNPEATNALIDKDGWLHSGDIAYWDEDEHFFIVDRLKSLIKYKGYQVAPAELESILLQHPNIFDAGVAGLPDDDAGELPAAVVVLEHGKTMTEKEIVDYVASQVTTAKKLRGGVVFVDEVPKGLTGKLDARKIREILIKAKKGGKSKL
row,Compound,Potency
1,Cc1ccc(C(=O)Nc2ccc3nc(SCC(=O)N4CCc5ccccc54)sc3c2)cc1,"inconclusive: 1.69 µM [inhibitor, full curve]"
2,Cc1cc2oc(C(=O)Nc3sc4c(c3C(=O)NCc3ccco3)CCC4)cc(=O)c2cc1C,inactive
3,CCOC(=O)c1ccc(CN(Cc2ccc(F)cc2)S(=O)(=O)c2ccc(F)cc2)cc1,inactive
4,COc1ccc(Nc2ncccc2C(=O)Nc2ccccc2)cc1,"inconclusive: 37.9 µM [inhibitor, single point]"
5,COc1ccc(C(=O)Nc2sc(C)c(-c3ccccc3)c2C#N)cc1OC,"inconclusive: 19 µM [inhibitor, partial curve]"
6,CCCCCC(=O)Nc1ccc2ccccc2c1,active: 13.5 µM
7,O=C(Nc1ccc(-c2nc3cccnc3s2)cc1)c1ccc(Cl)nc1,"inconclusive: 21.3 µM [inhibitor, partial curve, poor fit]"
8,O=C(COc1ccc(S(=O)(=O)N2CCCC2)cc1)Nc1ccc2c(c1)OCCO2,"inconclusive: 26.9 µM [inhibitor, single point]"
9,N=C1/C(=C\c2ccc(OC(=O)c3ccco3)cc2)C(=O)N=C2SC(N3CCCCC3)=NN12,"inconclusive: 26.9 µM [inhibitor, partial curve, poor fit]"
10,O=C1c2ccccc2C(=O)N1OCc1ccccc1,"inconclusive: 19 µM [inhibitor, partial curve, poor fit]"
11,OC(COc1ccc(Cl)cc1Cl)Cn1ccnc1 (stereo not given),"inconclusive: 37.9 µM [inhibitor, single point]"
12,c1ccc(C(c2nnnn2Cc2ccco2)N2CCN(c3nc4ccccc4s3)CC2)cc1 (stereo not given),inactive
13,CCOC(=O)C(C)n1cnc2c(nnn2-c2cccc(OC)c2)c1=O (stereo not given),"inconclusive: 21.3 µM [inhibitor, single point]"
14,CCOC(=O)C1(CCOc2ccccc2)CCN(Cc2cc(OC)c3c(c2)OCO3)CC1,inactive
15,O=C(CN(Cc1ccccc1)C(=O)CCl)c1cccc(Br)c1,inactive
16,Cc1ccc(C(=O)N(CC(C)C)c2nc3ccccc3s2)o1,"inconclusive: 37.9 µM [inhibitor, partial curve, poor fit]"
17,Cn1c(N)c(C(=O)COC(=O)c2ccc3c(c2)OCCO3)c(=O)n(C)c1=O,"inconclusive: 26.9 µM [inhibitor, partial curve]"
18,CC(=O)N1CCN(c2ccc(Nc3ncnc4c3oc3ccccc34)cc2)CC1,active: 23.9 µM
19,O=C(C1=C(O)C(=O)N(CCc2ccccc2)C1c1cccs1)c1ccco1 (stereo not given),"inconclusive: 23.9 µM [inhibitor, partial curve]"
20,Cc1nn2c3c(cnc2c1-c1ccccc1)C(=O)CC(c1ccco1)C3 (stereo not given),"inconclusive: 23.9 µM [inhibitor, partial curve, poor fit]"
21,COCCn1c(CNC(=O)c2cccc(N(C)C)c2)nc2cccnc21,"inconclusive: 19 µM [inhibitor, partial curve, poor fit]"
22,O=C(Nc1nc2c(s1)CCCC2)c1ccc2ncsc2c1,active: 2.39 µM
23,CCOC(=O)Nc1cc(Br)c2c(c1)OCCO2,"inconclusive: 23.9 µM [inhibitor, single point]"

row,Compound,Potency
1,CCOc1ccc(S(=O)(=O)NCC(c2ccc(N(C)C)cc2)N2CCCC2)cc1 (stereo not given),inactive
2,Cc1ccc(-c2cn3c(n2)sc2cc(C(=O)NCCC4=CCCCC4)ccc23)c(C)c1,inactive
3,O=S(=O)(c1ccc(-c2nnc(SCc3ccccc3)o2)cc1)N1CCCC1,inactive
4,C=CCSc1nnc(NC(=O)CSc2nc3ccccc3[nH]2)s1,"inconclusive: 37.9 µM [inhibitor, partial curve, poor fit]"
5,COc1ccc(-c2cc3c(=O)n(CC(=O)NCc4ccccc4OC)ncn3n2)cc1,inactive
6,CCc1ccc(OCc2nnc(SCC(=O)N3CCOCC3)o2)cc1,"inconclusive: 16.9 µM [inhibitor, partial curve]"
7,N#C/C(=C\c1ccccc1OCc1ccc(C(=O)O)cc1)C(=O)Nc1ccc(O)cc1,"inconclusive: 19 µM [inhibitor, partial curve]"
8,O=C(Nc1ccccc1)c1ccc2nsnc2c1,"inconclusive: 23.9 µM [inhibitor, partial curve, poor fit]"
9,Cn1cnc2cc(NCc3ccccc3Cl)ccc21,"inconclusive: 21.3 µM [inhibitor, single point]"
10,Cc1cnc(C(=O)Nc2nc(-c3ccccc3)cs2)cn1,"inconclusive: 4.26 µM [inhibitor, partial curve, poor fit]"
11,CN(C)S(=O)(=O)c1ccc(C(=O)OCCc2ccccc2)cc1,active: 15.1 µM
12,CC(C)(C)c1ccc(C(=O)NCC(=O)OCC(=O)Nc2ccc3c(c2)OCCO3)cc1,active: 3.38 µM
13,COc1ccc(OC)c(S(=O)(=O)NCCc2sc(-c3cccnc3)nc2C)c1,inactive
14,CNc1ccccc(-c2ccc3ccccc3n2)c1=O,active: 9.53 µM
15,CC(C)Oc1ccc(C(=O)NCC(=O)Nc2ccc3c(c2)CCC3)cc1,"inconclusive: 23.9 µM [inhibitor, single point]"
16,COc1ccc(-c2csc(NC(=O)Cc3ccccc3F)n2)c(OC)c1,"inconclusive: 21.3 µM [inhibitor, partial curve]"
17,Cc1ccc(C(=O)CN2C(=O)NC3(CCCCCC3)C2=O)c(C)c1,"inconclusive: 5.36 µM [inhibitor, partial curve]"
18,COc1cccc(NC(=O)c2c(-c3ccc(C)cc3)nnc3ccccc23)c1,"inconclusive: 15.1 µM [inhibitor, partial curve]"
19,COc1ccc(NC(=O)CSc2ccc(-c3ccco3)nn2)cc1OC,"inconclusive: 26.9 µM [inhibitor, partial curve, poor fit]"
20,COc1ccc(C(=O)c2coc3ccc(O)cc23)cc1,active: 1.51 µM
21,COc1ccc(CNC(=O)NC(C)(C)c2cccc(C(C)(C)NC(=O)NCc3ccc(OC)cc3)c2)cc1,inactive
22,COCCCNC(=O)c1ccc(CSc2nc3cccnc3n2Cc2ccc(OC)cc2)cc1,"inconclusive: 30.1 µM [inhibitor, single point]"

# Source: PubChem BioAssay AID588342 (National Center for Advancing Translational Sciences (NCATS), 2011)
